We go through 56 molecules from PubChem BioAssay AID463173 (ICCB-Longwood Screening Facility, Harvard Medical School, 2010).

The whole screen tested about 52,000 compounds, of which about 1,700 (3.3%) were called active. Rule as the data show it: active = survival mostly below about 52% (no sharp cut-off); inactive = mostly above about 56%. This is one part of the list.

In the assay the test system is Wild type. Kind of assay: growth inhibition of S. aureus wild type versus tarO mutant, primary screen, teichoic acid synthesis inhibitors, RN4220, OD600 (AID 463173). As to conditions: S. aureus RN4220 wild type/DeltatarO growth, OD600, 18 h, hits give low values, screened at 18.75 µg/mL (by protocol).
As for `Cc1cccc(NC(=O)CN2C(=O)c3cccnc3Oc3ccc(Cl)cc32)c1C`, the survival is inactive: 102%.
`CSc1ccc(CCNC(=O)CCCn2nc(C)c3sc4ccccc4c3c2=O)cc1`: the survival is inactive: 88%.
Consider `COc1ccccc1OCC(=O)N(Cc1ccc(Cl)cc1)CC1CCCO1` (stereo unspecified), for which the survival was inactive: 79%.
As for `CCc1cccc(CC)c1NC(=O)c1ccc2c(c1)CCN2S(=O)(=O)c1ccccc1`, the survival is inactive: 84%.
In the case of `CC(=O)c1ccc(NC(=O)CC2Nc3cccc4cccc(c34)NC2=O)cc1` (stereo unspecified), the survival is inactive: 96%.
Consider `CC(C)CCNC(=O)Nc1ccc2c(c1)N(C)C(=O)c1ccccc1S2`, for which the survival is inactive: 135%.
Regarding `Cc1ccc(Cc2cnc(I)c(O)c2)cc1`, the survival was inactive: 111%.
Take `COC(=O)CS(=O)(=O)c1nc2ccccc2nc1N1CCCCC1`: the survival was inactive: 58%.
On to `Cc1ccc(NC(=O)Cn2c(=O)c3cc(Cl)ccc3n3nncc23)cc1`, for which the survival is inactive: 53%.
The result for `Cc1n[nH]c(C)c1S(=O)(=O)N(CC(=O)NC(C)c1ccccc1)c1ccc(C(C)C)cc1` (stereo unspecified) reads inactive: 85%.
In the case of `COc1ccc(C(=O)NCCn2cc(SCC(=O)NCCc3ccc(OC)c(OC)c3)c3ccccc32)cc1`, the survival is inactive: 78%.
Take `COc1cccc(NC(=O)Cn2cnc3c(nc4n3CCCCC4)c2=O)c1`: the survival was inactive: 71%.
Take `COCCCNC(=O)CN1C(=O)COc2ccc(S(=O)(=O)N3CCCC3)cc21`: the survival was inactive: 79%.
In the case of `CC1=C(c2ccc(C)c(C)c2)S(=O)(=O)N=C1N1CCC(C(=O)NCCc2ccco2)CC1`, the survival is inactive: 71%.
As for `CS(=O)(=O)N1CCc2cc(C(=O)NCCc3ccccc3)ccc21`, the survival was inactive: 92%.
Under `Cc1ccc(-c2cc(C(=O)N3CCN(S(=O)(=O)c4ccc(Br)cc4)CC3)[nH]n2)cc1C` stands inactive: 66%.
With `CCC(=O)NCC(c1ccc2c(c1)OCO2)N1CCN(c2ccccc2)CC1` (stereo unspecified), the survival was inactive: 135%.
The result for `CCOc1ccc(NCc2cccn2-c2nnc(N3CCC(C(=O)NCCc4ccc(OC)c(OC)c4)CC3)s2)cc1` reads inactive: 129%.
For the molecule `O=C(CN1CCOCC1)N(c1ccccc1)c1ccc2ccccc2c1`, the survival was inactive: 106%.
Under `Cc1nc2ccccc2c(=O)n1-c1ccc(NC(=O)c2ccc([N+](=O)[O-])cc2)cc1` stands inactive: 73%.
In the case of `COc1ccc(N2CCN(C(=O)CCc3c(C)nc4cc(-c5ccc(Cl)cc5)nn4c3C)CC2)cc1`, the survival is inactive: 118%.
As to `Cc1ccc2cc(CNCc3cccnc3)c(=O)[nH]c2c1`, the survival is inactive: 103%.
The result for `COc1ccc(-c2[nH]nc3nc(-c4cc(OC)c(OC)c(OC)c4)cc(C(=O)O)c23)cc1` reads inactive: 86%; that for `Cc1ccc(CCNC(=O)c2cn(C)c3ccc(S(=O)(=O)N4CCCCC4)cc3c2=O)cc1`, inactive: 83%; that for `CCCS(=O)(=O)N1CCCC(C(=O)NCCCOC)C1` (stereo unspecified), inactive: 73%.
Regarding `Cc1ccccc1CNC(=O)C(=O)NCC(c1ccco1)S(=O)(=O)c1ccccc1` (stereo unspecified), the survival is inactive: 76%.
The result for `COc1ccc(C(=O)Nc2nnc(S(=O)(=O)N(C)c3ccc(Cl)cc3)s2)cc1OC` reads inactive: 78%; that for `COC(=O)C1=NNC2C(=O)N(C3CCCCC3)C(=O)C12` (stereo unspecified), inactive: 111%; that for `Cc1ccc2[nH]c(CSc3nnc(NC(=O)c4ccccc4C)s3)cc(=O)c2c1`, inactive: 72%.
As for `O=C1CCCN1c1ccc(S(=O)(=O)NCCOc2ccccc2Cl)cc1`, the survival is inactive: 105%.
Consider `CCc1cccc(NC(=O)CCS(=O)(=O)c2cc(Br)cc3c2N(C(C)=O)CC3)c1`, for which the survival was inactive: 137%.
With `COc1cc(OC)cc(C(=O)Nc2ccc3c(c2)N(C2CCCC2)C(=O)c2ccccc2S3)c1`, the survival is inactive: 123%.
On to `O=C(NCc1ccccc1Cl)c1cc2ccccc2o1`, for which the survival was inactive: 31%.
Regarding `O=C(CSc1nc2ccccc2nc1Cc1ccccc1)N1CCCCC1`, the survival was inactive: 92%.
Regarding `COc1cc(-c2nc3ncccn3c2Nc2ccc(C)cc2C)ccc1O`, the survival was inactive: 132%.
Regarding `CCOc1ccccc1NC(=O)N1CCN(Cc2nc3ccc(C)cc3o2)CC1`, the survival was inactive: 64%.
Under `Cc1ccc(C)c(N2CCN(S(=O)(=O)c3c(C)nc4sccn4c3=O)CC2)c1` stands inactive: 86%.
Consider `CCOc1ccc(-c2nnc(SCC(=O)NCc3ccccc3)nc2-c2ccc(OCC)c(OC)c2)cc1OC`, for which the survival is inactive: 77%.
`CCc1ccc(C2CC(=O)Nc3c2c(C)nn3-c2nc(C)cc(C)n2)cc1` (stereo unspecified): the survival was inactive: 92%.
Under `CCCCOc1cccc(C(=O)Nc2ccc3oc(-c4cccnc4)nc3c2)c1` stands inactive: 72%; under `Cc1cc(C)cc(-n2c(SCC(N)=O)nc3c(oc4ccccc43)c2=O)c1`, inactive: 74%.
For the molecule `COc1cccc(Nc2c3c(nc4nncn24)CCC3)c1`, the survival is inactive: 84%.
Under `CCOc1ccccc1NC(=O)Cn1cnc2sc(C)c(S(=O)(=O)N3CCC(C)CC3)c2c1=O` stands inactive: 86%; under `C/C=C/C(=O)Oc1ccc(Cl)cc1`, inactive: 105%; under `O=C(O)C1CC=CCC1C(=O)NCCc1ccccc1` (stereo unspecified), inactive: 106%.
Turning to `O=C(Cc1cccs1)Nn1c(Cc2cccs2)nc2ccccc2c1=O`, the survival is inactive: 95%.
As for `Cc1cccc(C)c1Nc1sc(C(=O)c2ccccc2)c(N)c1C(=O)Nc1ccc(F)cc1`, the survival is inactive: 71%.
The result for `COc1cccc(-c2ccc3c(N)c(C(=O)c4ccc(Cl)cc4)sc3n2)c1` reads inactive: 39%.
Regarding `CCc1cccc(NC(=O)Cn2nc(-c3ccc(OC)cc3)ccc2=O)c1`, the survival was inactive: 59%.
`CCOc1ccccc1NC(=O)Cn1c(=O)n(Cc2ccccc2)c(=O)c2c(C)c(C)sc21`: the survival was inactive: 92%.
The result for `CCOC(=O)c1ccc(N2C(=O)c3n[nH]c(-c4cccs4)c3C2c2ccc(C(C)(C)C)cc2)cc1` (stereo unspecified) reads inactive: 88%; that for `O=C(Nc1nc2n(n1)C(c1ccccc1)C=C(c1ccccc1)N2)c1ccc(Cl)c([N+](=O)[O-])c1` (stereo unspecified), inactive: 88%; that for `Cc1ccc(NC(=O)c2c(C)oc3ccc(O)c(CN4CCCCCC4)c23)c(C)c1`, inactive: 96%.
Under `CCOC(=O)c1[nH]c(C)c(CCC(=O)NCc2ccc(OCC)cc2)c1C` stands inactive: 78%; under `COc1ccc(S(=O)(=O)N(Cc2cc3c(C)cc(C)cc3[nH]c2=O)CC2COCCO2)cc1` (stereo unspecified), inactive: 111%.
As for `COc1cc(NC(=O)C2CCCN(S(=O)(=O)c3ccc4c(c3)oc(=O)n4C)C2)c(C(=O)O)cc1OC` (stereo unspecified), the survival is inactive: 91%.
